B1: TPR 5TU (parent)
chain: GGAUCUUCUCGAUCUAACAAAAAAGACAAAUCUGCCACAAAGCUUGAGAGCAUCUUCGGAUGCAGAGGCGGCAGCCUUCGGUGGCGCGAUAGCGCCAACGUUCUCAACUAUGACACGCAAAACGCGUGCUCCGUUGAAUGGAGUUUAUCAUG

Variants at the floor of the assay are shown more often than the library holds them.

In the series the parent is B1. Nature of the series: polymerase ribozyme fitness, log enrichment relative to wild type (log ratio); higher = more active; in vitro selection for triplet polymerase activity. A digest of the protocol:
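PCR was used to build mutant libraries for each subunit of a heterodimeric triplet polymerase ribozyme, which were then transcribed. A single in vitro selection round, in triplicate, used a frozen incubation at −7 °C and recovered extended constructs by gel excision, streptavidin beads and RT-PCR. Fitness is the logarithm of genotype enrichment relative to wild-type enrichment, averaged over replicates with inverse-variance weights. The logarithm is base 2, and after Illumina sequencing only genotypes with ≥10 input reads and ≥1 read per output were kept.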
In the case of A22G U44A C85A, the “polymerase ribozyme fitness (log ratio)” value is no more than -4.2. As to A22U A24U C93U G124C G133A, the “polymerase ribozyme fitness (log ratio)” value is no more than -4.2. Take A23C A91G A119U A121C A150C: the “polymerase ribozyme fitness (log ratio)” value is no more than -4.2. As for A23C A40U A91G G94A, the “polymerase ribozyme fitness (log ratio)” value was no more than -4.2.

As to A22U A28U G67U G68A G84A G128A, the “polymerase ribozyme fitness (log ratio)” value was no more than -4.2. Take A22U G25A G84U A89G: the “polymerase ribozyme fitness (log ratio)” value is no more than -4.2. For A22U C57A G68U G84C C99A A142C, the “polymerase ribozyme fitness (log ratio)” value was no more than -4.2. In the case of A22G C36U G84A U90G C99G U144A, the “polymerase ribozyme fitness (log ratio)” value is no more than -4.2. Regarding A23G A52U G59U G94C U144C, the “polymerase ribozyme fitness (log ratio)” value is no more than -4.2. Take A22G A47C G59C C95U U104G A120G U145A C149A: the “polymerase ribozyme fitness (log ratio)” value is no more than -4.2.

As for A22U A52U U78A C85U U127A A137C, the “polymerase ribozyme fitness (log ratio)” value was no more than -4.2. With A23C C51U U55A G83U G133C, the “polymerase ribozyme fitness (log ratio)” value was no more than -4.2. Take A23G C35U U56A C85A C118U G124U: the “polymerase ribozyme fitness (log ratio)” value was -4.08. Regarding A23C U33G A49C G84U A106G C114G, the “polymerase ribozyme fitness (log ratio)” value is no more than -4.2. In the case of A23C C51A C79A it was no more than -4.2. With A22U U77G C85G G92U, the “polymerase ribozyme fitness (log ratio)” value is no more than -4.2.

On to A22U A28C U78G G92U, for which the “polymerase ribozyme fitness (log ratio)” value is no more than -4.2.

For the variant A23C C54G C87A A91U, the “polymerase ribozyme fitness (log ratio)” value was no more than -4.2.

Take A22G C51A U55A C87G U104G: the “polymerase ribozyme fitness (log ratio)” value is no more than -4.2.

As to A22G A73U C76G C85G C95A C96U, the “polymerase ribozyme fitness (log ratio)” value was no more than -4.2.

On to A23C A24U C87A C93G C95A G143C, for which the “polymerase ribozyme fitness (log ratio)” value was no more than -4.2. With A23G A49U C87A C108U C132U, the “polymerase ribozyme fitness (log ratio)” value was no more than -4.2. Take A22U G83C G84A U101A C123A: the “polymerase ribozyme fitness (log ratio)” value was -4.08. In the case of A23G C57A G88A G124C it was no more than -4.2; in that of A23G G83U C87A C96U A122C, no more than -4.2; in that of A22U C76U, 0.515.

In the case of A23U A24C A41C A49G C87A C108G, the “polymerase ribozyme fitness (log ratio)” value is no more than -4.2. The figure for A23C A40U C95U U134A U151A is no more than -4.2; for A22G C51G A91U G94U U144C it is no more than -4.2; for A23C C87A U139G it is no more than -4.2. As for A23C A28C G48U C63G G80C U101G C131U, the “polymerase ribozyme fitness (log ratio)” value is no more than -4.2.

A23G A64U G136U A150G: the “polymerase ribozyme fitness (log ratio)” value was no more than -4.2. In the case of A22U A37U G50C U56A A66G A147U G152U it was no more than -4.2; in that of A23G A41C C43A U45A A49G U55G C96A C108G, no more than -4.2.

On to A22G A28C A29G G34C U55A C76A C79G C87A C103G G124C U144C, for which the “polymerase ribozyme fitness (log ratio)” value is no more than -4.2. In the case of A22U C35U U55A G59A G65A C85U C105A it was no more than -4.2; in that of A22U U53A G74A C95U U135C, no more than -4.2; in that of A23G G50A C57U U90A A120G U148G, no more than -4.2.

Take A22U C57G C79G C96U U146A U148A: the “polymerase ribozyme fitness (log ratio)” value was no more than -4.2.

Turning to A23G A26U G94C A110C, the “polymerase ribozyme fitness (log ratio)” value was no more than -4.2.

On to A22U A23C A29G G42U C43G G58U C99U U101G A110U, for which the “polymerase ribozyme fitness (log ratio)” value is no more than -4.2. In the case of A23C C35A A73C A91G A98G A121U it was no more than -4.2; in that of A23C C32U C76A C125U, no more than -4.2. Regarding A22G U53C U82G A98U, the “polymerase ribozyme fitness (log ratio)” value amounted to 0.397. For A23C C32U U56G C123U A142U U144G, the “polymerase ribozyme fitness (log ratio)” value is no more than -4.2. For the variant A22G C38U C95U A107C G128A, the “polymerase ribozyme fitness (log ratio)” value is no more than -4.2. As for A23C C76G C103G C125A C132G, the “polymerase ribozyme fitness (log ratio)” value is no more than -4.2. The figure for A22G G74C G86A A142U U145G is no more than -4.2; for A23C C38U C93A A142C it is no more than -4.2.

For the variant A22U C38A G59A C85U C95A, the “polymerase ribozyme fitness (log ratio)” value is -0.962. Consider A22G C96A U151G, for which the “polymerase ribozyme fitness (log ratio)” value is no more than -4.2. On to A22G A28U U53A C85G A91C C96U, for which the “polymerase ribozyme fitness (log ratio)” value is no more than -4.2. The figure for A23G U33A C57U G62A A73U G81A G88C A120C G143A is no more than -4.2. The figure for A22U A64C U77A C116U C131G is no more than -4.2. A23G A37G U44G G74C U77A U146A A150G: the “polymerase ribozyme fitness (log ratio)” value was no more than -4.2. The figure for A23G C75U G86C A110U G133C U135C is no more than -4.2.

Regarding A22C G84A C99A G152U, the “polymerase ribozyme fitness (log ratio)” value was no more than -4.2. For A22U C76G C79U G81C A91U C118A U148C, the “polymerase ribozyme fitness (log ratio)” value was no more than -4.2. Take A23C C54A C87U G143C: the “polymerase ribozyme fitness (log ratio)” value was no more than -4.2. In the case of A22G C36A G71A C85A C93U G117A A137U A147U, the “polymerase ribozyme fitness (log ratio)” value is no more than -4.2. In the case of A23G C54G U56A A142C, the “polymerase ribozyme fitness (log ratio)” value was no more than -4.2. Turning to A23G U45A C63U G83A G92U G94A A142C, the “polymerase ribozyme fitness (log ratio)” value was no more than -4.2. For A22U U55A G94A A98U U135A, the “polymerase ribozyme fitness (log ratio)” value was -2.29. On to A22G U45A A91U C105A C108G, for which the “polymerase ribozyme fitness (log ratio)” value was no more than -4.2. With A23C C76A C93A C149G, the “polymerase ribozyme fitness (log ratio)” value is no more than -4.2. With A22C U53A G80A U82C C85A G92C G124U, the “polymerase ribozyme fitness (log ratio)” value was no more than -4.2. As for A22U A39U C96A C118G A122C C149A, the “polymerase ribozyme fitness (log ratio)” value was no more than -4.2. On to A22U G80C G86U C99G U109G U127G G141C, for which the “polymerase ribozyme fitness (log ratio)” value is no more than -4.2.

Take A23G C87A U104A U127A G136A: the “polymerase ribozyme fitness (log ratio)” value is no more than -4.2. As to A22U A23C, the “polymerase ribozyme fitness (log ratio)” value was -4. For the variant A22U A28U U33G C57G G86A A137U A150C, the “polymerase ribozyme fitness (log ratio)” value was no more than -4.2. A22U A37C G88C G92U G140C: the “polymerase ribozyme fitness (log ratio)” value is no more than -4.2. For the variant A23C A29C A97G G141C, the “polymerase ribozyme fitness (log ratio)” value was no more than -4.2. On to A23G A26U G84U, for which the “polymerase ribozyme fitness (log ratio)” value is no more than -4.2. For A23G A39G A41G G42C U61G A73C C76A C93U C95U G100C G124U U127C G152U, the “polymerase ribozyme fitness (log ratio)” value is no more than -4.2.

For the variant A22U C57G C93G U151G, the “polymerase ribozyme fitness (log ratio)” value is no more than -4.2. As to A23C A29G G81A G84U A122G G126A U135A, the “polymerase ribozyme fitness (log ratio)” value is no more than -4.2. For the variant A22G A66G A73G C96A A97G G124U U134C, the “polymerase ribozyme fitness (log ratio)” value is no more than -4.2.

As for A23C C108G A115G A138U U148C, the “polymerase ribozyme fitness (log ratio)” value was no more than -4.2.

A23C A39G G58A G65A C132A G136C U148G: the “polymerase ribozyme fitness (log ratio)” value is no more than -4.2.

For A22U C36U U78C U146C, the “polymerase ribozyme fitness (log ratio)” value is -3.63. Take A23C C32U U61A C76A C85G C116A A121U U144A: the “polymerase ribozyme fitness (log ratio)” value was no more than -4.2.

For A23G A41G C75A C95U, the “polymerase ribozyme fitness (log ratio)” value is no more than -4.2.

The record behind these values is the RNAGym collection of RNA variant scans (doi:10.1073/pnas.2313332121).
